Measured values: the supplement of paper PMC10126150
Sequences with one replicate were seen in a single cluster, so their values are uncertain.

Tested on: ATP
Experiment: switch fluorescence ratio, 500 uM ATP over buffer (Cy3 cluster intensity, sum of 5 cycles each) (fold (ratio)); higher = stronger signal-on switching upon ATP binding; sequences stand for … in TCGTCGGCAGCGTCAGATGTGTATAAGAGACAGTTTTTTTTTTTTTTTTTTTTTTTTT…TC
Conditions: aptamer strand: ATP DNA aptamer (quencher-CACCTGGGGGAGTATTGCGGAGGAAGG + anchor), 100 nM annealed; ATP concentration: 500 uM; one replicate
Summary of the method: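 Clusters with intensities outside 100-1000 RFU were excluded. The remaining Cy3-labelled switching-strand clusters on a modified Illumina MiSeq flow-cell had been annealed to 100 nM quencher-labelled ATP aptamer and imaged in selection buffer, then after 15 min with 500 uM ATP at 22 °C, for five cycles separated by NaOH stripping and re-annealing. The fluorescence ratio, averaged per switch-domain sequence, is each cluster's summed target-cycle Cy3 intensity over its summed buffer-cycle Cy3 intensity.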
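Further: ATP exposure 15 min at 22 °C before imaging.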

Sequence	switch fluorescence ratio
GGCAGGGCCG	0.988
CGGAGTCATT	1.48
TCATGCAAGG	1.03
TTTTAGACCC	1
CCAAGGGCGA	1.19
TTCGGACGCT	1.47
GAAAGTAGCC	0.982
CAAAGCCATT	0.986
CACTTTAATT	1.07
TGTGAGTAAA	1.03
AGGATTTACG	1.03
GACTGGGTAA	1
CGACAAATCG	1.08
CGAGTAGGCT	0.981
CAACCGGCCT	1.35
AGATTACCAG	1.04
CCTTGCAAAA	3.46
CGACTCAAAG	1.01
ATTCGTGCG	0.992
TCGCAACTTG	1.58
CCGGATAGTC	1.71
GAACGCAGTT	0.983
GTTAAGGGGG	0.995
CGACGGGTGT	1.22
CAATATTCGG	0.955
TATTGGCAGT	0.925

Sequence	switch fluorescence ratio
CTAGGCAGGT	1.43
ACCGTTGGCA	0.963
TTAGGTGCAT	1.2
AATCGGATTT	1.04
CCCCCCACTT	1.09
TTGCGTAAG	0.97
TATCTCACTT	1.03
TAGCATGAT	1.05
AATTGTGGTA	0.954
ATGACAGGCG	1.03
GTGTAAGTTC	1.01
AGAACCACTT	1.02
TCTTGTTGGA	1.03
AATGAACAAG	1.04
AACGCCGTAG	1.02
CAACTTGTTC	1.02
CCGCGGCTCG	1.94
CGCTACCGGG	1.15
CTTCTAGAAA	1.03
CAGACGCGGC	1.07
TGAAGAGTAG	1.02
TATGCCACC	1.03
TATGCGAACC	1.01
AGTGTTCTCA	0.972
AAACGCTAGT	1.01
TCAAGGTAAT	1.04

Sequence	switch fluorescence ratio
ATGCTACCGC	1.07
GGTGCATCTA	0.976
GCTCGGCGGA	0.991
CATGGCCGAT	0.99
CCACTGACTG	1.17
AGAAGTGT	1
TTGTTGACTG	0.97
CGCCCATGGG	1.03
AAAGGAGAGA	0.995
CGCGGATGG	1.02
CGTGCTGCGT	1.04
AGAATTTCGT	1.01
AGCGACAAAT	0.97
CACGTGTACG	1.02
AACGTCCACA	1.29
GAAAGTAATC	1.05
AATGTGGAAT	1.04
CGGCATTT	1.08
GGTTATTCAC	1.07
CGCGAAGGTT	1.02
TGATAAAGAG	0.984
CATCCTTAGT	1.02
CCAGGCAGTG	1.02
CCGTGATTAG	1.61
CCTTAAACCG	1.3
AGGATGTGTG	0.988

Sequence	switch fluorescence ratio
AGCAACGGCT	1.04
CGCAACTTCA	1.59
AGGTGTGTGA	1.01
TAAGTAAACC	1.02
TAACAGCCA	1.05
GCCGCCGCAC	1.92
GCCATAGATA	1.03
GCGTAGTGCT	0.991
CAAGGAGAG	0.979
AGGAGCTTTT	0.999
TGAAAGGGGT	0.972
ATTGTATGTT	0.987
ACATTATACA	1.08
TTCCTAGGGC	0.995
TACTCCTTGT	1.07
ATTAGAAGTT	0.984
TTGGGGTAGT	0.984
TACTTGGTGT	1.04
GAAGCTTAAG	1
GTTTTCCTGG	1
AAGCATATGA	1.02
CGGTAGGTGT	1.06
TAGTGAAGAA	1.02
AAGATCGCCC	1.01
GATGCAGTCA	1.03
TAGAGAGAAA	1.02

Sequence	switch fluorescence ratio
TAATCGGGCA	1.01
TTTGTAGGTC	1.01
AGAATACGCT	1
TTACAGCTCT	1.02
TCAGTATTGG	1.04
GACAACATGG	1.06
TGCGTGTAGT	0.97
TCTTTGTTGC	1.06
AATTGCTCCT	1.07
TACTACTACT	1.18
GCATGCATCT	0.992
AAGGAAGAC	1.29
TACCCGGACT	1.03
CCGGCACAAG	1.4
CGGTTACACT	1.05
GAAAGGCCGG	1.01
TTCATAGCGC	1.03
CGCTTTGTTA	1.01
GGGCGAAGGC	0.98
CCTGTGTTAA	1.08
TTGACGCCGG	1.03
AATCCGTCTA	1.13
ACGGGCTGT	0.995
TCCACTTTCG	1.01
ACGTCTCAGA	1.03
GAAAGTATGG	0.979

Sequence	switch fluorescence ratio
TGAGATTTCC	1.1
TGATTGCCGT	1
CTGGGGGATT	0.966
CAGGGTCATC	0.998
GGGTGTCATG	1.05
GAGAGTAGTA	0.974
TAAAGGGG	1.09
ATATACGAGC	1.05
GGGTGGGTCG	1.03
GACTGCTGGG	1
GTAATTTTGT	1.02
TAGCCGTTAA	0.971
CGGGAAGAAA	0.951
TGCCACCGCT	1.17
TGGGAGTTCG	1.04
CAGGGCAC	0.984
ATCGTCCGTT	0.995
TGGGGATTT	0.994
CACGTGACAG	1.1
TCCTACATTG	0.997
ACTGCCGTGG	1.02
TATACAACAG	1.15
GTTCAGTTGT	1.02
AATTCAAATC	1.02
AGGATTCCCG	1.02
GAGTCTGGTC	1.01

Sequence	switch fluorescence ratio
GAGCCAGGA	0.996
TTTTTTCGCC	1.11
GTGTGGAAGT	1.02
ATGCGAGGGA	1.05
GATATGACT	0.997
CATGTAGGTT	1.08
CTGCGCGAGG	1.27
GATCAGAGGC	0.957
CTGCTACTGA	1.07
CAGGAGATTA	1.01
CGGCCCTTAC	3.2
ATGTCACTTA	1.07
TTCAGTCTA	0.988
GAGAAGCACC	1.18
TACGCCTAAT	1.04
GGGGGTATAA	1.02
CAGCTACGAT	1.07
GGTGTCAGCC	0.954
GCCTAACGGA	1.08
ATGTTTCACT	0.959
CTAATTAAGA	1.02
GAGTAGGGGC	1.06
TTTTACGTT	0.976
ATTTTCACCG	1.05
AGATACCAGT	1.01
TTATAATGCA	0.933

Sequence	switch fluorescence ratio
GTTTTCGCTC	1.04
GTTACCGACG	1.05
GCCGAGACGG	1.01
CGTCAGTTGC	1.11
TACTGTTACG	1.27
TGGTCAAGAA	1.01
TTGAGTGCGT	1
CGGGTAGCCG	0.924
TAAAACCGAT	1.02
ACTGGTGTGT	0.998
GCCTACGAT	1.08
AGGGTGCGAG	0.965
TCGAGCGAAT	1.16
ATAGGCATTG	0.982
GTAGGGCTTT	0.981
CAAAAAATCT	0.993
CCGAGTTGGG	1.06
AATTCATAT	0.964
TTATTTAGAT	1.03
